From PubChem BioAssay AID1347417 (National Center for Advancing Translational Sciences (NCATS), 2020)
Hit rate of the full screen: of about 120,000 compounds, about 5,300 (4.4%) were called active. Inconclusive means that the source gave no clear call. Such entries were picked first, then a sample of the others. The call rests on the fitted dose curve; in most records, active means well fitted inhibition curve with a large enough effect; inconclusive means small, poorly fitted or top-dose-only effect; inactive means no such curve, though single readings can be large or run the other way. Potencies beside an inconclusive call are fits to weak or partial responses and may not hold up.

Experiment: qHTS Primary assay for Inhibitors of Plasmodium falciparum Dd2 growth in vitro; further: nearly all actives have a fitted effect of over 65% in size;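 on activity, negative = inhibition: plate controls were DMSO vehicle for no effect and reference drug for full effect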
Conditions: P. falciparum Dd2 growth, SYBR Green, 72 h; activity, negative = inhibition: at 28.9 µM (top of the series) unless noted; series mostly up to 28.9 µM
Method in brief: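 Infected erythrocytes (Dd2, 0.3% parasitemia, 2.5% hematocrit final) are added to compound in RPMI-1640/Albumax II medium, grown 72 h at 37C in low oxygen, then lysed with saponin/Triton-X containing SYBR Green and read by fluorescence.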
Potency means the concentration at half of the fitted maximal effect; tags describe the fitted curve by direction and shape.

Row | SMILES | Potency | activity, negative = inhibition | outcome
1 | Cc1cccc(OCC(=O)NC2CCN(C(=O)c3cc4c(=O)[nH]c(C)cn4n3)CC2)c1 | inconclusive: 0.316 µM [inhibitor, full curve, poor fit] | – | –
2 | Cc1noc(C)c1CCCNC(=O)c1ccc(NC[C@H]2C[C@H]3C=C[C@H]2C32CC2)nc1 | inconclusive: 10 µM [inhibitor, single point] | – | –
3 | COc1ccc(NC(=O)CSc2nc(-c3ccc(OC)c(OC)c3)[nH]c2-c2ccc(C)cc2)cc1 | inconclusive: 14.1 µM [inhibitor, partial curve, poor fit] | – | –
4 | Cc1nc(-c2ccccc2Br)cc([C@H]2CN3CC[C@H]2C[C@@H]3CNC(=O)NC(C)C)n1 | inconclusive: 10 µM [inhibitor, single point] | – | –
5 | COc1ccccc1CN(Cc1ccco1)c1cnc(S(C)(=O)=O)nc1C(=O)Nc1ccccc1Cl | inconclusive: 17.8 µM [inhibitor, single point] | – | –
6 | Cc1c(C(=O)OC2CCC(C)CC2)[nH]c2c1C(=O)CC(c1ccccc1Cl)C2 (configuration not stated) | – | inactive: -27.1% | –
7 | O=C(C1CC1)N1CCC(c2nn(-c3ccccc3)c(=O)[nH]2)CC1 | inconclusive: 31.6 µM [inhibitor, single point] | – | –
8 | CCn1nccc1C(=O)N1CCn2nnc(CCC(=O)NCc3ccccc3)c2C1 | – | inactive: -10.8% | –
9 | COc1ccc(NC(=O)c2ccc(-c3ncc4cnc(C5=CCOCC5)cn34)cc2)cn1 | inconclusive: 2.24 µM [inhibitor, full curve] | – | –
10 | CNC(=O)CCn1ncc2cc(OCc3ccccc3-c3cccc(C)c3)ccc21 | inconclusive: 1.58 µM [inhibitor, full curve, poor fit] | – | –
11 | CC(=O)N[C@@H]1C=C[C@@H](c2c(C)nn(-c3ccc(C(C)(C)C)cc3)c2C)C1 | inconclusive: 31.6 µM [inhibitor, single point] | – | –
12 | O=C(Nc1ccc(Cl)cc1)c1cc(S(=O)(=O)N2CCCc3ccccc32)ccc1F | inconclusive: 12.6 µM [inhibitor, single point] | – | –
13 | CCc1ccccc1N1C(=O)N(CC(=O)c2ccc(Cl)cc2)c2ccccc2S1(=O)=O | inconclusive: 17.8 µM [inhibitor, single point] | – | –
14 | Cc1ccc(Cn2c(=O)n(CCc3ccccc3)c(=O)c3c(C)c(C)sc32)cc1 | inconclusive: 17.8 µM [inhibitor, single point] | – | –
15 | O=C(C1CCCC1)N1CC2(CCCN(Cc3ccccn3)C2)Cc2ccccc21 (configuration not stated) | inconclusive: 10 µM [inhibitor, single point] | – | –
16 | CC(=O)N1CCC(NC[C@@H]2C=C(C)[C@H](Cc3nc4ccc(F)cc4[nH]3)C[C@H]2C(C)C)CC1 | active: 11.2 µM | – | –
17 | CNC(=O)c1cc[nH]c1C1CCCN(C(=O)CC2=CCCCC2)C1 (configuration not stated) | – | inactive: -14% | –
18 | CCOCCOC1CCN(C(=O)c2cc(-c3cccc(OC)c3)n[nH]2)CC1 | inconclusive: 12.6 µM [inhibitor, single point] | – | –
19 | CCOc1ccc(C2=C(C(=O)CC)Sc3nncn3N2C(=O)CC)cc1 | inconclusive: 17.8 µM [inhibitor, single point] | – | –
20 | O=C(NCC1CCCCO1)C1(Oc2ccc(Cl)cc2)CCNCC1 (configuration not stated) | inconclusive: 14.1 µM [inhibitor, single point] | – | –
21 | COc1ccc(C2Cn3nnc(C(=O)N4CCN(C(=O)Cc5ccc(Cl)cc5)CC4)c3CO2)cc1 (configuration not stated) | inconclusive: 17.8 µM [inhibitor, single point] | – | –

Row | SMILES | Potency | activity, negative = inhibition | outcome
22 | CCOc1cccc(CNC(=O)C2CCN(C(=O)c3ncn4c3COC(c3ccccc3)C4)CC2)c1 (configuration not stated) | – | inactive: 19% | –
23 | Cc1cccc(C(=O)N2CCC(Cc3nncn3CC3CC3)CC2)c1 | – | inactive: -18.5% | –
24 | CN1CCC(OC2CCN(S(=O)(=O)c3ccc(F)cc3)CC2)CC1 | inconclusive: 2.51 µM [inhibitor, partial curve, poor fit] | – | –
25 | COc1ccc(CCNC(=O)CSc2cn(CCNC(=O)c3ccccc3F)c3ccccc23)cc1OC | inconclusive: 11.2 µM [inhibitor, single point] | – | –
26 | O=c1c2nc(-c3cccc(O)c3)ccc2ncn1Cc1ccccn1 | inconclusive: 12.6 µM [inhibitor, partial curve, poor fit] | – | –
27 | COC[C@H]1CCCN1C(=O)CC[C@@H]1CNC(=O)[C@@H]2C[C@H](NC(=O)c3ccccc3)CN12 | – | inactive: -9% [at 44.1 µM] | –
28 | CCOc1ccccc1-c1noc(-c2nc(CC)no2)n1 | inconclusive: 12.6 µM [inhibitor, single point] | – | –
29 | COCCOc1ncccc1-c1noc([C@@H]2CCCN2Cc2ccc(OC)cc2O)n1 | inconclusive: 11.2 µM [inhibitor, partial curve, poor fit] | – | –
30 | COCCN1CCOc2nc(-c3cc4ccccc4o3)ncc2C1=O | inconclusive: 31.6 µM [inhibitor, single point] | – | –
31 | O=C(C1CC1)N(C1CCOCC1)C1CCN(S(=O)(=O)c2cc(F)cc(F)c2)CC1 | – | – | inactive
32 | COC(=O)c1c(-c2ccc(Cl)cc2)noc1N1CCN(c2cccc(C)c2C)CC1 | active: 4.47 µM | – | –
33 | COc1ccccc1N1CCCc2ncc(C(=O)N(C)Cc3ccccc3)cc21 | inconclusive: 2.82 µM [inhibitor, partial curve, poor fit] | – | –
34 | CC(C)CCN1CCC(O)(c2csc(CN3CCc4ccccc4C3)n2)CC1 | active: 12.6 µM | – | –
35 | O=C(Cc1cccc(F)c1)N1CCC(Cc2nc(C3CCOCC3)no2)CC1 | – | inactive: 55.1% | –
36 | C#CCN(C)C(=O)C[C@@H]1c2nc(-c3cccnc3)sc2C[C@@H]2[C@](C)(CO)[C@H](O)CC[C@]21C | – | inactive: -18.6% | –
37 | CCOC(=O)Cn1c(=O)oc2cc(S(=O)(=O)N3CCCC(C)C3)ccc21 (configuration not stated) | inconclusive: 0.0224 µM [inhibitor, full curve, poor fit] | – | –
38 | CCCCn1cc(S(=O)(=O)c2ccc(Cl)cc2)c(=O)c2cc(F)c(N3CCCC(C)C3)cc21 (configuration not stated) | inconclusive: 12.6 µM [inhibitor, partial curve] | – | –
39 | O=C1[C@@H]2C[C@@H](CN2C2CCCC2)Oc2ccccc2N1Cc1ccccc1 | inconclusive: 20 µM [inhibitor, partial curve, poor fit] | – | –
40 | CC(C)C(=O)Nc1c(C(=O)N2CCN(c3ccccc3F)CC2)oc2ccccc12 | inconclusive: 11.2 µM [inhibitor, single point] | – | –
41 | Fc1ccc(C(c2nnc(-c3ccccc3)o2)N2CCN(c3ccccc3)CC2)c(Cl)c1 (configuration not stated) | inconclusive: 10 µM [inhibitor, single point] | – | –
42 | COc1cccc(C(=O)N2CCC3(CC2)CCN(Cc2cccs2)c2ccccc2O3)c1 | inconclusive: 7.94 µM [inhibitor, partial curve, poor fit] | – | –

Row | SMILES | Potency | activity, negative = inhibition | outcome
43 | Cc1ccc2c(c1)N(CC(=O)NCCCN1CCCCC1)C(=O)c1cccnc1O2 | – | inactive: 51.2% | –
44 | COc1ccccc1CNC(=O)CCCN1C(=O)CCn2nc(-c3cn(C)c4ccccc34)cc21 | inconclusive: 17.8 µM [inhibitor, single point] | – | –
45 | COC[C@@H]1CCCN1Cc1cn(Cc2ccccc2)nc1-c1cc2ccccc2o1 | – | – | inactive
46 | OC1CN(Cc2ccccc2)CCN(Cc2cn[nH]c2-c2ccc(Cl)cc2)C1 (configuration not stated) | inconclusive: 2.51 µM [inhibitor, single point] | – | –
47 | COc1cccc(N2C(=O)NC(=NC3CCCC3)C23CCN(Cc2cccnc2)C3)c1 (configuration not stated) | – | inconclusive: -76.9% [inhibitor] | –
48 | N#Cc1ccccc1CN1CCCCCCNC(=O)[C@@H]2C[C@@H](C(=O)N3CCc4ccccc4C3)C[C@@H]21 | active: 3.16 µM | – | –
49 | Cc1ccc(C(=O)N2[C@@H]3CC[C@H]2CC(NC(=O)c2ccncc2)C3)cc1F (some centres not stated) | inconclusive: 0.355 µM [inhibitor, full curve, poor fit] | – | –
50 | Cc1nsc(NC(=O)NCc2ccccc2OC(F)(F)F)n1 | inconclusive: 8.91 µM [inhibitor, partial curve, poor fit] | – | –
51 | Cc1cc(C)c(S(=O)(=O)c2nnn3c2nc(NCCCOC(C)C)c2ccccc23)c(C)c1 | – | inactive: -20.1% | –
52 | COc1ccc(Cl)cc1-c1ccc2c(c1)C(=O)N1CCN(C(=O)CO)C[C@@H]1C(=O)N2 | inconclusive: 31.6 µM [inhibitor, single point] | – | –
53 | O=C(NCCN1CCCC1)C1CN(S(=O)(=O)c2cccs2)CC12CCCCC2 (configuration not stated) | inconclusive: 0.891 µM [inhibitor, full curve, poor fit] | – | –
54 | Cc1ccc(CN2C(=O)COC[C@H]2C(=O)NCc2ccco2)cc1 | – | inactive: 49.2% | –
55 | COc1cccc(CC(=O)Nc2ccc3c(c2)CN(Cc2ccccc2)C(=O)C(C)O3)c1 (configuration not stated) | inconclusive: 2.51 µM [inhibitor, single point] | – | –
56 | CC(C)N1C(=O)C2(CCCCC2)C1C(=O)NCCN1CCCC1 (configuration not stated) | inconclusive: 14.1 µM [inhibitor, single point] | – | –
57 | CCCC1(CO)CCCN(Cc2ccc(OCC(=O)N3CCCC3)cc2)C1 (configuration not stated) | inconclusive: 4.47 µM [inhibitor, partial curve, poor fit] | – | –
58 | Cc1noc2c(-c3cccnc3NCCCn3ccnc3)cc(-c3ccccc3)nc12 | active: 10 µM | – | –
59 | COc1ccc2[nH]cc(CCNC(=O)CCC3CCN(C(=O)c4ccc(C)cc4)CC3)c2c1 | inconclusive: 20 µM [inhibitor, single point] | – | –
60 | COc1ccc(C(=O)N2CCC3(CC2)NC(=O)N(Cc2ccc(F)cc2)C3=O)cc1OC | inconclusive: 15.8 µM [inhibitor, single point] | – | –
61 | CN(Cc1cnc2ccccc2c1)C(=O)c1ccc(CCC(C)(C)O)cc1 | – | inactive: -29.5% | –
62 | CC(=O)NC1(C)CCCN(Cc2cccc(-c3cccc(F)c3)c2)C1 (configuration not stated) | inconclusive: 5.62 µM [inhibitor, single point] | – | –
